Reference: the supplement of paper PMC12217912
This is one part of the list. The full chains were built here from the parent and the listed change. Inactive controls read about 0.05.

B1: TEV protease; numbered along this chain (parent)
chain: MGESLFKGPRDYNPISSSICHLTNESDGHTTSLYGIGFGPFIITNKHLFRRNNGTLVVQSLHGVFKVKDTTTLQQHLVDGRDMIIIRMPKDFPPFPQKLKFREPQREERICLVTTNFQTKSMSSMVSDTSCTFPSGDGIFWKHWIQTKDGQCGSPLVSTRDGFIVGIHSASNFTNTNNYFTSVPKNFMELLTNQEAQQWVSGWRLNADSVLWGGHKVFMVKPEEPFQPVKEATQL

Variants of: B1
Experiment: raw area under fraction-flipped curve 0-4 h after induction (AUC4h, not background-subtracted), DNA-recorder readout of cleavage of the substrate (dimensionless); higher = more cleavage of the substrate by the protease variant
Settings: temperature: 34 °C; time window: 0-4 h after rhamnose induction
Protocol: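 In vivo DNA recorder in E. coli TOP10(DE3) ΔrhaA at 34 °C. Each TEVp single-site mutant (parent TEVp 0) is paired with a single-site variant of the 7-mer TEVs (canonical ENLYFQ|S). The substrate sits between flexible linkers in a Bxb1-sfGFP-TEVs-SsrA fusion, so cleavage stabilises Bxb1 and speeds flipping of a recombination array, read by NGS. The value is the raw area under the fraction-flipped curve over 0-4 h after rhamnose induction (AUC4h), with ≥20 reads per time point. It is not background-subtracted; inactive controls average about 0.047.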
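Note: Bxb1 expression induced with 0.2% (w/v) L-rhamnose at OD600 near 0.5, cultures sampled hourly, flipped fraction per protease–substrate barcode pair counted by paired-end Illumina sequencing.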

Row | Variant | area with substrate ENLAFQS | area with substrate ENLDFQS | area with substrate ENLFFQS | area with substrate ENLIFQS | area with substrate ENLKFQS | area with substrate ENLNFQS | area with substrate ENLQFQS | area with substrate ENLWFQS | area with substrate ENLCFQS | area with substrate ENLEFQS | area with substrate ENLGFQS | area with substrate ENLHFQS | area with substrate ENLLFQS | area with substrate ENLMFQS | area with substrate ENLPFQS | area with substrate ENLSFQS | area with substrate ENLVFQS | area with substrate ENLRFQS | area with substrate ENLTFQS
1 | MGESLFKGPRDYNPISSSICHLTNESDGHTTSLYGIGFGPFIITNKHLFRRNNGTLVVQSLHGVFKVKDTTTLQQHLVDGRDMIIIRMPKDFPPFPQKLKFREPQREERICLVTTNFQTKSMSSMVSDTSCTFPSGDGIFWKHWIQTKDGQCGSPLVSTRDGFIVGIHSASNFTNTNNYFTSVPKNFMELLTNQEAQQWVSGWRLNASSVLWGGHKVFMVKPEEPFQPVKEATQL [D208S] | 0.0652 | 0.0599 | 0.0984 | 0.0804 | 0.0753 | 0.066 | 0.0465 | 0.0609 | – | – | – | – | – | – | – | – | – | – | –
2 | MGESLFKGPRDYNPISSSICHLTNESDGHTTSLYGIGFGPFIITNKHFFRRNNGTLVVQSLHGVFKVKDTTTLQQHLVDGRDMIIIRMPKDFPPFPQKLKFREPQREERICLVTTNFQTKSMSSMVSDTSCTFPSGDGIFWKHWIQTKDGQCGSPLVSTRDGFIVGIHSASNFTNTNNYFTSVPKNFMELLTNQEAQQWVSGWRLNADSVLWGGHKVFMVKPEEPFQPVKEATQL [L48F] | 0.0664 | 0.0665 | 0.0943 | 0.0509 | 0.0843 | 0.0514 | 0.0685 | – | 0.0726 | 0.0658 | 0.0537 | 0.0776 | 0.0781 | 0.0693 | 0.0681 | 0.0591 | 0.0752 | – | –
3 | MGESLFKGPRDYNPISSSICHLTNESDGHTTSLYGIGFGKFIITNKHLFRRNNGTLVVQSLHGVFKVKDTTTLQQHLVDGRDMIIIRMPKDFPPFPQKLKFREPQREERICLVTTNFQTKSMSSMVSDTSCTFPSGDGIFWKHWIQTKDGQCGSPLVSTRDGFIVGIHSASNFTNTNNYFTSVPKNFMELLTNQEAQQWVSGWRLNADSVLWGGHKVFMVKPEEPFQPVKEATQL [P40K] | 0.0394 | 0.0669 | 0.137 | 0.102 | 0.0754 | 0.0497 | – | – | – | 0.0504 | – | 0.072 | 0.0556 | – | 0.0405 | 0.0536 | 0.0666 | 0.0795 | –
4 | MGESLFKGPRDYNPISSSICHLTNESDGHTTSLYGIGFGPFIITNKHLFRRNNGTLVVQSLHGVFKVKDTTTLQQHLVDGRDMIIIRMPKDFPPFPQKLKFREPQREERICNVTTNFQTKSMSSMVSDTSCTFPSGDGIFWKHWIQTKDGQCGSPLVSTRDGFIVGIHSASNFTNTNNYFTSVPKNFMELLTNQEAQQWVSGWRLNADSVLWGGHKVFMVKPEEPFQPVKEATQL [L112N] | 0.0759 | 0.0719 | 0.0601 | 0.0684 | 0.0776 | 0.0659 | 0.0686 | 0.0572 | – | 0.0496 | 0.0647 | 0.0665 | 0.0502 | 0.0564 | 0.0541 | 0.0502 | 0.061 | 0.0619 | –
5 | MGESLFKGPRDYNPIDSSICHLTNESDGHTTSLYGIGFGPFIITNKHLFRRNNGTLVVQSLHGVFKVKDTTTLQQHLVDGRDMIIIRMPKDFPPFPQKLKFREPQREERICLVTTNFQTKSMSSMVSDTSCTFPSGDGIFWKHWIQTKDGQCGSPLVSTRDGFIVGIHSASNFTNTNNYFTSVPKNFMELLTNQEAQQWVSGWRLNADSVLWGGHKVFMVKPEEPFQPVKEATQL [S16D] | 0.0637 | – | 0.08 | 0.0572 | 0.0682 | 0.0909 | – | 0.053 | 0.0635 | 0.0457 | 0.0757 | 0.0595 | – | – | 0.0585 | 0.0688 | 0.0606 | – | 0.087
6 | MGESLFKGPRDYNPISSSICHLTNESDGHTTSLYGIGFGPFIITNKHLFRRNNGTLVVQSLHGVFKVKDTTTLQQHLVDGRDMIIIRMPKDFPPFPQKLKFREPQREERICLVTTNFQTKSMSSMVSDTSCTFPSGDGIFWKHWIQTKDGQCGSPLVSTVDGFIVGIHSASNFTNTNNYFTSVPKNFMELLTNQEAQQWVSGWRLNADSVLWGGHKVFMVKPEEPFQPVKEATQL [R160V] | 0.0559 | 0.0711 | 0.078 | 0.0701 | 0.0818 | 0.0593 | 0.0809 | 0.067 | 0.0784 | 0.0679 | 0.0615 | 0.0601 | 0.081 | – | 0.0466 | 0.0651 | 0.0784 | – | –
7 | MGESLFKGPRDYNPISSSICHLTNESDGHTTSLYGIGFGLFIITNKHLFRRNNGTLVVQSLHGVFKVKDTTTLQQHLVDGRDMIIIRMPKDFPPFPQKLKFREPQREERICLVTTNFQTKSMSSMVSDTSCTFPSGDGIFWKHWIQTKDGQCGSPLVSTRDGFIVGIHSASNFTNTNNYFTSVPKNFMELLTNQEAQQWVSGWRLNADSVLWGGHKVFMVKPEEPFQPVKEATQL [P40L] | 0.0621 | 0.0587 | 0.0798 | – | 0.0637 | 0.0564 | 0.0735 | 0.0683 | – | 0.0719 | 0.0641 | 0.0654 | 0.0799 | – | 0.0788 | 0.0574 | – | 0.0743 | 0.0689
8 | MGESLFKGPRDYNPISSSICHLTNESDGHTTSLYGIGFGPFIITNKHLFRRNNGTLVVQSLHGCFKVKDTTTLQQHLVDGRDMIIIRMPKDFPPFPQKLKFREPQREERICLVTTNFQTKSMSSMVSDTSCTFPSGDGIFWKHWIQTKDGQCGSPLVSTRDGFIVGIHSASNFTNTNNYFTSVPKNFMELLTNQEAQQWVSGWRLNADSVLWGGHKVFMVKPEEPFQPVKEATQL [V64C] | 0.0589 | 0.0627 | 0.0925 | 0.0881 | 0.0774 | 0.0721 | 0.0728 | – | – | 0.071 | – | 0.0745 | – | 0.0829 | 0.0658 | 0.07 | 0.0925 | 0.0785 | –
9 | MGESLFKGPRDYNPISSSICHLTNESDGHTTSLYGIGFGPFIITNKHLFRRNNGTLVVQSLHGVFKVKDTTTLQQHLVDGRDMIIIRMPKDFPPFPQKLKFREPQREERICLVTTNFQTKSMSSMVSDTSCTFPSGDGIFWKHWIQTKDWQCGSPLVSTRDGFIVGIHSASNFTNTNNYFTSVPKNFMELLTNQEAQQWVSGWRLNADSVLWGGHKVFMVKPEEPFQPVKEATQL [G150W] | 0.0571 | 0.0629 | 0.0577 | 0.0651 | 0.0531 | 0.0569 | 0.059 | 0.0584 | 0.0689 | 0.0322 | – | 0.0829 | 0.0604 | – | 0.0551 | 0.0529 | 0.0228 | 0.0531 | –
